Measurements reported in PubChem BioAssay AID1347165 (National Center for Advancing Translational Sciences (NCATS), 2019).
Hit rate of the full screen: of about 220,000 compounds, about 5,700 (2.6%) were called active. This list was built around the results that the source calls inconclusive (neither active nor inactive); the mix of calls is not that of the screen. Calls come from the whole dose curve; as a rule, active = well fitted inhibition curve with a large enough effect; inconclusive = small, poorly fitted or top-dose-only effect; inactive = no such curve, though single readings can be large or run the other way. Potencies beside an inconclusive call are fits to weak or partial responses and may not hold up.

target: Lysine-specific demethylase 5B (Homo sapiens) (UniProt Q9UGL1); assay: Primary screen for KDM5B Histone Demethylases FDH-coupled qHTS; settings: FDH-coupled NADH fluorescence (FDH is formaldehyde dehydrogenase); series mostly up to 57.7 µM; note: nearly all actives have a fitted effect of over 70% in size
UniProt Q9UGL1, sequence (Q9UGL1 whole entry, looked up): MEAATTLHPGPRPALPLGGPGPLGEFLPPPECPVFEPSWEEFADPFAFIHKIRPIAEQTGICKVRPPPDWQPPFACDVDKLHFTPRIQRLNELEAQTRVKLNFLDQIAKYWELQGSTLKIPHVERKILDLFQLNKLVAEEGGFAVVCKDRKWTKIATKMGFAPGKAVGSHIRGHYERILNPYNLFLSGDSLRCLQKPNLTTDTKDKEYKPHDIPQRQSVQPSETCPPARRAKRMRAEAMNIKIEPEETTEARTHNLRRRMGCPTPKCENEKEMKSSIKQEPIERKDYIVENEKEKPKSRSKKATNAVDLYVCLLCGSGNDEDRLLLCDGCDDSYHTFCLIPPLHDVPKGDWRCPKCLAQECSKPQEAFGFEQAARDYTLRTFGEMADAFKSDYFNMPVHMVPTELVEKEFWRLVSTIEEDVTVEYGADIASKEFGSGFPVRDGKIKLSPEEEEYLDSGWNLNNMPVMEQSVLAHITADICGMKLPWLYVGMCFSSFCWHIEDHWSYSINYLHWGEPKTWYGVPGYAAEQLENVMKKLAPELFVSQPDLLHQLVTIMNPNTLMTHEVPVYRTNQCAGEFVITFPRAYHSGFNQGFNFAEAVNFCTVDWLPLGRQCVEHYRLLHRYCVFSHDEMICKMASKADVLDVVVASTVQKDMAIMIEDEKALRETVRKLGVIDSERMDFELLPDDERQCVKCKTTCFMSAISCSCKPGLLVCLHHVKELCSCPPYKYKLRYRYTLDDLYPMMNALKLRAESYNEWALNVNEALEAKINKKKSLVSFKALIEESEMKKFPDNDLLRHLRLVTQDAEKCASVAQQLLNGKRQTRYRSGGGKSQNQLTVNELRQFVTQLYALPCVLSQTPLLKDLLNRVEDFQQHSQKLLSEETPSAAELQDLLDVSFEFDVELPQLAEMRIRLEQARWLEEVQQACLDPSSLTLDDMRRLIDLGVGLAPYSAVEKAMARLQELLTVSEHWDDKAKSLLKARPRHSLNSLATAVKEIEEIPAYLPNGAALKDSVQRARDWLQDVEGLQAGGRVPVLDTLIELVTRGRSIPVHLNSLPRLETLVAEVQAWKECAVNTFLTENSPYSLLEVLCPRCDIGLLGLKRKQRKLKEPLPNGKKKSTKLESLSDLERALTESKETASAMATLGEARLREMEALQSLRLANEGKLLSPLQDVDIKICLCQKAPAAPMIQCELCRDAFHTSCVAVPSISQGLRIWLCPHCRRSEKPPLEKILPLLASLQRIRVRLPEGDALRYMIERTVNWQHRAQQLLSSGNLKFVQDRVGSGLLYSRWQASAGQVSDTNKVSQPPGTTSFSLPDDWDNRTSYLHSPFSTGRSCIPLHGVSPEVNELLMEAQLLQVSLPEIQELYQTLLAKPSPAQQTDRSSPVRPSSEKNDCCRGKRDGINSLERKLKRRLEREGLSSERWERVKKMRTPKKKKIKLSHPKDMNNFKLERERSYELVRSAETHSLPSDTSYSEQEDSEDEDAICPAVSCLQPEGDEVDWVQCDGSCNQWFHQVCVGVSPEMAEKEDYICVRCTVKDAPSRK
Procedure, shortened: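 Coupled FDH/NAD⁺ fluorescence readout. KDM5BΔAP 200 nM final; compound titration, 10 min RT preincubation; substrate mix 12.5 µM H3K4me3, 25 µM 2-OG, 50 µM Fe(II), 100 µM ascorbate, 0.25 mM NAD⁺, 0.25 U/mL FDH; ΔRFU over 30 min.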
Potency is the fitted concentration of half-maximal effect; tags give direction and shape of the fitted curve.

SMILES | Potency
Cc1ccc(C)c(-c2cc(C(=O)O)c3cccc(C)c3n2)c1 | inactive
COCCNC(=O)c1ccc2c(c1)N(C)C(CC(=O)N1CCCC1)CO2 (stereo unspecified) | active: 31.6 µM
O=C(Nc1ccsc1)N[C@H]1C[C@H]2C(=O)NC[C@@H](CCC(=O)N3CCCCC3)N2C1 | inconclusive: 35.5 µM [inhibitor, partial curve, poor fit]
COc1ccc(-c2nc3scc(CCNS(=O)(=O)c4ccc(Oc5ccccc5)cc4)n3n2)cc1OC | inconclusive: 8.91 µM [inhibitor, partial curve, poor fit]
Nc1nccnc1C(=O)NCCc1cccc2cccnc12 | inconclusive: 25.1 µM [inhibitor, partial curve, poor fit]
CCN(CC)C(=O)c1sc2c(c1C)c(=O)n(-c1ccc(C)c(C)c1)c(=O)n2Cc1cc(=O)n2ccccc2n1 | inconclusive: 31.6 µM [inhibitor, partial curve, poor fit]
CN(C)C[C@@H]1CN(Cc2ccncc2)C[C@H]1NC(=O)C1CC=CC1 | inconclusive: 25.1 µM [inhibitor, single point]
COc1ccc(C2c3[nH]c4ccccc4c3CCN2C(=O)CCC2CCCC2)cc1 (stereo unspecified) | inconclusive: 17.8 µM [inhibitor, partial curve, poor fit]
O=C(c1cc(C2=NNC(=Nc3ccc(Cl)cc3)SC2)c[nH]1)N1CCCC1 | inactive
O=C(CSc1nnc(N2CCOCC2)n1-c1cccc(F)c1)Nc1ccc(SC(F)F)cc1 | inactive
CCOC(=O)c1ccc(NC(=O)c2cnn3c(=O)c4c(n(CC)c23)CCN(Cc2ccc(OC)cc2)C4)cc1 | inconclusive: 5.01 µM [inhibitor, full curve, poor fit]
COC(=O)c1cc(CN2CCCC(O)(CN(C)C)C2)ccc1O (stereo unspecified) | inconclusive: 31.6 µM [inhibitor, single point]
Cc1noc([C@@H](C)NC(=O)Nc2cccnc2)c1C(=O)O | inconclusive: 28.2 µM [inhibitor, partial curve]
CCc1cc2ccc(OC)cc2nc1SCC(=O)N1CCN(C(=O)c2ccco2)CC1 | inconclusive: 22.4 µM [inhibitor, partial curve, poor fit]
CCCc1cc(=O)oc2cc(OCC(N)=O)ccc12 | inconclusive: 28.2 µM [inhibitor, partial curve, poor fit]
Cc1ccc(CNC(=O)CCc2cn(C)c3ccccc23)cc1 | inconclusive: 35.5 µM [inhibitor, single point]
COC(=O)CN(Cc1ccccc1)Cc1ccco1 | inactive
CCC(Sc1nc2c(sc3ccccc32)c(=O)n1CCc1ccc(OC)c(OC)c1)C(=O)N(CC)CC (stereo unspecified) | inconclusive: 31.6 µM [inhibitor, partial curve, poor fit]
CCOc1cccc(-c2noc(-c3nnn4c3COC(c3ccc(F)cc3)C4)n2)c1 (stereo unspecified) | inconclusive: 28.2 µM [inhibitor, single point]
CC(=O)N1C[C@@H]2CCCN3CCC[C@@H]([C@H]23)[C@H]1CCCC(=O)N1CCN(C)CC1 | active: 25.1 µM
CCS(=O)(=O)c1ncc(Cl)c(C(=O)N2CCN(c3ccc(OC)cc3)CC2)n1 | inconclusive: 28.2 µM [inhibitor, partial curve, poor fit]

SMILES | Potency
Cc1ccccc1-c1ccnc(-c2nnc(C)n2Cc2ccccc2)c1 | inactive
O=C(c1ccncc1)N(CCc1ccccc1)Cc1cccs1 | inactive
O=c1c2ccccc2nc(/C=C/c2cccc3ccccc23)n1-c1ccc(F)cc1F | inconclusive: 1.26 µM [inhibitor, full curve, poor fit]
c1ccc(-c2cc(Cn3cc(-c4cncnc4)nn3)on2)nc1 | inconclusive: 31.6 µM [inhibitor, partial curve, poor fit]
CCCc1cc(=O)oc2cc(C)cc(OCc3nn[nH]n3)c12 | inconclusive: 25.1 µM [inhibitor, partial curve, poor fit]
COc1ccc(-c2cnc3[nH]cc(CC(N)=O)c3c2)cc1OC | inconclusive: 31.6 µM [inhibitor, single point]
COc1ccc2c(CNCCc3ccc(SC)cc3)c(C(=O)O)n(Cc3ccc(F)cc3)c2c1 | inconclusive: 39.8 µM [inhibitor, single point]
COC(=O)[C@@H]1Cc2nc[nH]c2CN1C(C)C | inconclusive: 11.2 µM [inhibitor, full curve]
CCOc1ccc(-c2nc(C#N)c(N3CCN(C)CC3)o2)cc1 | inconclusive: 3.98 µM [inhibitor, full curve, poor fit]
CNC(=O)c1cccc(-c2cnc3[nH]cc(CC(=O)Nc4ccccc4Cl)c3c2)c1 | inactive
CC(=O)Nc1sc2c(c1SC#N)CCCC2 | inconclusive: 10 µM [inhibitor, partial curve, poor fit]
COc1ccc(-c2c(C)oc3cc(OCC(=O)Nc4ccc5c(c4)OCCO5)ccc3c2=O)cc1 | inactive
O=C(c1nnc(CN2CCN(c3ccccn3)CC2)n1Cc1ccccc1)N1CCC[C@@H]1c1ccc(Br)cc1 | inconclusive: 31.6 µM [inhibitor, single point]
CC(=O)Nc1ccc2oc(-c3ccc(C(C)C)cc3)cc(=O)c2c1 | inactive
CCCn1nc(C(=O)NCc2ccc(OC)cc2)c2ccccc2c1=O | inactive
Cc1ccc(C(=O)O/N=C(\N)c2ccccn2)cc1 | inconclusive: 1.78 µM [inhibitor, full curve, poor fit]
Cc1ncoc1C(=O)N1CCC(N2C[C@H](O)C[C@H]2C(=O)NC2CCCCC2)CC1 | inconclusive: 28.2 µM [inhibitor, single point]
Cc1noc(C)c1-c1nccc2c(=O)cc(-c3cccnc3)oc12 | inconclusive: 31.6 µM [inhibitor, partial curve, poor fit]
Cc1cccc(NC(=O)Cn2c(-c3ccc(Cl)cc3)nc(C)c(CCO)c2=O)c1C | inactive
CC1(COc2ccccc2)COc2ccc(C(=O)N3CCOCC3c3ccncc3)cc2N1 (stereo unspecified) | inconclusive: 15.8 µM [inhibitor, partial curve]
